Measurements as given in publication PMC8166750 (The Journal of Biological Chemistry, 2021).
Residue numbers refer to the chain shown, from its start.

What was measured:
zfP2X4^WT = target: T1, zfP2X4^WT (Danio rerio, UniProt F8W463); test: ATP concentration-response, perforated patch clamp in HEK293 cells; assay type: cell-based, zebrafish (Danio rerio)
T1 sequence (F8W463 1-389): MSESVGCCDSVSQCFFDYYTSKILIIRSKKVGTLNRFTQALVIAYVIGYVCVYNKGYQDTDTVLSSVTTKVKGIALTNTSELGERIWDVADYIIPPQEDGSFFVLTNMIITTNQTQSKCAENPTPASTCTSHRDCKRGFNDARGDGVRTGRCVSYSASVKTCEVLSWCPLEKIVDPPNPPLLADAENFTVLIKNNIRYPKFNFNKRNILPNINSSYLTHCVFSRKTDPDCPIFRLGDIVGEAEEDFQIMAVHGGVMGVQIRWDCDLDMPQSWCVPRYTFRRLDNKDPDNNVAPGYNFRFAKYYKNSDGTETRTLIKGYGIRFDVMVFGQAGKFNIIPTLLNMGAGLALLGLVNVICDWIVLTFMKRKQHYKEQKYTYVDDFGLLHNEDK

AmP2X^WT = target: T2, AmP2X^WT (Amblyomma maculatum, UniProt G3MM57); test: as above; assay type: cell-based, gulf coast tick (Amblyomma maculatum)
T2 sequence (G3MM57 1-383): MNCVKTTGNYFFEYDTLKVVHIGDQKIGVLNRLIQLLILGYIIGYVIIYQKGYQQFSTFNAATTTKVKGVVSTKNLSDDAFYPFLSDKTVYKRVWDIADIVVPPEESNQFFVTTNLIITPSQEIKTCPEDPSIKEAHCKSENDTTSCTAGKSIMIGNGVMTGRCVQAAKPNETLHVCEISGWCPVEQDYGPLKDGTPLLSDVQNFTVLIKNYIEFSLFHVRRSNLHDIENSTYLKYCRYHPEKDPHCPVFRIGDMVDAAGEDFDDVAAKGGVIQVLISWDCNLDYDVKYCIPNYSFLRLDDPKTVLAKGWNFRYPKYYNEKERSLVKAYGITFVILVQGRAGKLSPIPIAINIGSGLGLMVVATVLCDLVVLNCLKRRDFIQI

pdP2X7^WT = target: T3, pdP2X7^WT (Ailuropoda melanoleuca, UniProt G1M6C4); test: as above; assay type: cell-based, giant panda (Ailuropoda melanoleuca)
T3 sequence (G1M6C4 2-606): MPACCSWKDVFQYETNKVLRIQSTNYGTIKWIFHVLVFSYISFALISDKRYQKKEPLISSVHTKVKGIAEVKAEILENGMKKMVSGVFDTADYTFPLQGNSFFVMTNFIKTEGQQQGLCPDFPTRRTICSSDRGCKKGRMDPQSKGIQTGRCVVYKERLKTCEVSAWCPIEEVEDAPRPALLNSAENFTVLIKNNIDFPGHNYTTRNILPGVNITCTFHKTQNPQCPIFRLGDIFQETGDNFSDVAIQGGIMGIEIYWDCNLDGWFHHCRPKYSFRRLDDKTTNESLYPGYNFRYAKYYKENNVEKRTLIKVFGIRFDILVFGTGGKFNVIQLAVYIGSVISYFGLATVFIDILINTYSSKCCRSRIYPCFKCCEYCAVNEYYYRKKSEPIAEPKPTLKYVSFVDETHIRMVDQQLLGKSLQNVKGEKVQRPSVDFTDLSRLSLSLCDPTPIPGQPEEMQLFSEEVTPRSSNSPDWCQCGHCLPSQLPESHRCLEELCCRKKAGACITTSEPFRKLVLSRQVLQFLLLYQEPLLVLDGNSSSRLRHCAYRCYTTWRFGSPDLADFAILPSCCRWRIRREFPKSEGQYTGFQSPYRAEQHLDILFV

hP2X1^E119A = target: T4, hP2X1^E119A (Homo sapiens, UniProt P51575, E119A); test: as above; assay type: cell-based
T4 sequence (P51575 1-399 E119A): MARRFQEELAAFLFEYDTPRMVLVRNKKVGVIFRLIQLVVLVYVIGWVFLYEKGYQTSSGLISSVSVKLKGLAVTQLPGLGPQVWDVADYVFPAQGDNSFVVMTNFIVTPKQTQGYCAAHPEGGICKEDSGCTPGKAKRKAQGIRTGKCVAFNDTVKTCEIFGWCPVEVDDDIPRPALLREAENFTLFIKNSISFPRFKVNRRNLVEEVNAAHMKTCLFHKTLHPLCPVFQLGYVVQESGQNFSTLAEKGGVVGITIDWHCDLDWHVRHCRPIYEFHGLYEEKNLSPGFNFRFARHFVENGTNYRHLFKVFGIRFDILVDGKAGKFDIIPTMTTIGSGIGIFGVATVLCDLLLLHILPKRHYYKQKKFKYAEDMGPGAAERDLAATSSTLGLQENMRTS

AmP2X^E129A = target: T5, AmP2X^E129A (Amblyomma maculatum, UniProt G3MM57, E129A)
T5 sequence (G3MM57 1-383 E129A): T2 sequence (G3MM57 1-383) with E129A

hP2X2^WT = target: T6, hP2X2^WT (Homo sapiens, UniProt Q9UBL9); test: ATP concentration-response, perforated patch clamp in HEK293 cells; assay type: cell-based
T6 sequence (Q9UBL9 1-471): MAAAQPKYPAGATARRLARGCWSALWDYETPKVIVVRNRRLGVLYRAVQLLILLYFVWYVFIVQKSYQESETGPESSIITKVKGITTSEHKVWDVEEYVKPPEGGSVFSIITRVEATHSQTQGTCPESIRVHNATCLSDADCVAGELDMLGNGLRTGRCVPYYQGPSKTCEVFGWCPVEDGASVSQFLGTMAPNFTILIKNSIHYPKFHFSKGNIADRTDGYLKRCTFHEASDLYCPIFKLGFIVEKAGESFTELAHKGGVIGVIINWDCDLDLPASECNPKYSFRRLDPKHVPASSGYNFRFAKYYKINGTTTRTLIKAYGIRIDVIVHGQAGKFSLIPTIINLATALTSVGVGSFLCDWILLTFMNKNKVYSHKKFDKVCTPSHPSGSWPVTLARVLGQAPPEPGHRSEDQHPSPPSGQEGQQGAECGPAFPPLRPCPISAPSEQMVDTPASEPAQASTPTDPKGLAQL

## Nc1ncnc2c1ncn2[C@@H]1O[C@H](COP(=O)(O)OP(=O)(O)OP(=O)(O)O)[C@@H](O)[C@H]1O [ATP]
zfP2X4^WT
  nH (Hill coefficient) of ATP: 0.94 ± 0.16
zfP2X4^WT; EC50 of ATP (concentration yielding half-maximal activation), mean ± SD, n = 3–7
  EC50: 1.43 ± 0.733 mM
AmP2X^WT
  EC50: 43.5 ± 4.7 µM
AmP2X^WT; AmP2X^WT
  nH (Hill coefficient) of ATP: 1.14 ± 0.11
pdP2X7^WT
  EC50: 95.7 ± 17.6 µM
pdP2X7^WT; pdP2X7^WT
  nH (Hill coefficient) of ATP: 1.44 ± 0.32
hP2X1^E119A
  EC50: 920 ± 170 nM
hP2X1^E119A; hP2X1^E119A
  nH (Hill coefficient) of ATP: 1.46 ± 0.33
AmP2X^E129A
  nH (Hill coefficient) of ATP: 0.99 ± 0.09
hP2X2^WT
  EC50: 13.2 ± 1.97 µM
hP2X2^WT; hP2X2^WT
  nH (Hill coefficient) of ATP: 1.15 ± 0.17
